Experimental data reported in the antibiotic and cytotoxicity screens of Wong et al. (2023).
Some of the results follow.

tested on: HepG2; test: cytotoxicity call (relative viability < 0.9); settings: 10 µM

SMILES	cytotoxicity call
O=C(C[C@@H]1C=C[C@H](NC(=O)c2ccc3c(c2)OCO3)[C@@H](CO)O1)NCc1ccc(Oc2ccccc2)cc1	inactive
C[C@@H]1CN([C@H](C)CO)C(=O)Cc2cc(NC(=O)Nc3ccc(C(F)(F)F)cc3)ccc2O[C@H]1CN(C)Cc1ccc(C(=O)Nc2ccccc2N)cc1	inactive
C/C=C/c1ccc2c(c1)O[C@H](CN(C)Cc1ccc(C(=O)O)cc1)[C@@H](C)CN([C@@H](C)CO)S2(=O)=O	inactive
COc1ccc(CN(C)C[C@@H]2OCCCC[C@@H](C)Oc3ccc(NC(=O)NC4CCCCC4)cc3C(=O)N([C@H](C)CO)C[C@H]2C)cc1	inactive
C[C@@H]1CN([C@H](C)CO)S(=O)(=O)c2ccc(C#Cc3ccc(F)cc3)cc2O[C@H]1CN(C)C(=O)CN(C)C	active
CN1C(=O)c2cc(NC(=O)Cc3cccs3)ccc2OC[C@@H]2O[C@H](CC(=O)NCCc3ccncc3)CC[C@H]21	inactive
COc1ccc(CN(C)C[C@@H]2OCCCC[C@@H](C)Oc3ccc(NS(=O)(=O)c4ccc(OC)cc4)cc3C(=O)N([C@H](C)CO)C[C@@H]2C)cc1	inactive
COc1c(C)c2c(c(O)c1CC=C(C)CCC(=O)OCCN1CCOCC1)C(=O)OC2	inactive
C[C@H]1CN([C@@H](C)CO)C(=O)c2cc(NS(C)(=O)=O)ccc2O[C@H]1CN(C)S(C)(=O)=O	inactive
COc1cccc(S(=O)(=O)N(C)C[C@H]2OCc3cnnn3CCCC(=O)N([C@H](C)CO)C[C@H]2C)c1	inactive
O=C(Nc1ccc(-c2nc3cc(NC(=O)c4ccccc4[N+](=O)[O-])ccc3o2)cc1)c1ccccc1[N+](=O)[O-]	active
